Laboratory results: the supplement of paper PMC8728848
This is one part of the list.

Tests used:
Assay in all cases: glycan array binding signal (z-score within array); higher = stronger binding
Settings in all cases: glycan notation: IUPAC condensed, linker removed
Fuc(a1-2)Gal = target: Fuc(a1-2)Gal
Outline: (§1)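 The binding signal is a Z-score computed within each array. Data were drawn from 3228 arrays in the Consortium for Functional Glycomics database, restricted to those with a known protein sequence. Scores were averaged over arrays of the same protein sequence at different concentrations or buffers, and over linkers, and negative values can be taken as non-binding.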

Fuc(a1-2)Gal(b1-3)GalNAc = target: Fuc(a1-2)Gal(b1-3)GalNAc
Outline: as §1

[1] = target: Fuc(a1-2)Gal(b1-3)GalNAc(a1-3)[Fuc(a1-2)]Gal(b1-4)Glc
Outline: as §1

[2] = target: Fuc(a1-2)Gal(b1-3)GalNAc(a1-3)[Fuc(a1-2)]Gal(b1-4)GlcNAc
Outline: as §1

[3] = target: Fuc(a1-2)Gal(b1-3)GalNAc(b1-3)Gal
Outline: as §1

[4] = target: Fuc(a1-2)Gal(b1-3)GalNAc(b1-3)Gal(a1-4)Gal(b1-4)Glc
Outline: as §1

[5] = target: Fuc(a1-2)Gal(b1-3)GalNAc(b1-4)[Neu5Ac(a2-3)]Gal(b1-4)Glc
Outline: as §1

Fuc(a1-2)Gal(b1-3)GlcNAc = target: Fuc(a1-2)Gal(b1-3)GlcNAc
Outline: as §1

[6] = target: Fuc(a1-2)Gal(b1-3)GlcNAc(b1-2)Man(a1-3)[Fuc(a1-2)Gal(b1-3)GlcNAc(b1-2)Man(a1-6)]Man(b1-4)GlcNAc(b1-4)GlcNAc
Outline: as §1

[7] = target: Fuc(a1-2)Gal(b1-3)GlcNAc(b1-2)Man(a1-3)[Fuc(a1-2)Gal(b1-3)GlcNAc(b1-2)Man(a1-6)]Man(b1-4)GlcNAc(b1-4)[Fuc(a1-6)]GlcNAc
Outline: as §1

[8] = target: Fuc(a1-2)Gal(b1-3)GlcNAc(b1-3)Gal(b1-4)Glc
Outline: as §1

[9] = target: Fuc(a1-2)Gal(b1-3)GlcNAc(b1-3)GalNAc
Outline: as §1

[10] = target: Fuc(a1-2)Gal(b1-3)GlcNAc(b1-3)[Fuc(a1-2)Gal(b1-3)GlcNAc(b1-6)]GalNAc
Outline: as §1

[11] = target: Fuc(a1-2)Gal(b1-3)GlcNAc(b1-3)[Gal(b1-4)GlcNAc(b1-6)]Gal(b1-4)Glc
Outline: as §1

[12] = target: Fuc(a1-2)Gal(b1-3)GlcNAc(b1-3)[Neu5Ac(a2-6)Gal(b1-4)GlcNAc(b1-6)]Gal(b1-4)Glc
Outline: as §1

[13] = target: Fuc(a1-2)Gal(b1-3)GlcNAc6S
Outline: as §1

[14] = target: Fuc(a1-2)Gal(b1-3)[Fuc(a1-4)]GlcNAc
Outline: as §1

[15] = target: Fuc(a1-2)Gal(b1-3)[Fuc(a1-4)]GlcNAc(b1-2)Man(a1-3)[Fuc(a1-2)Gal(b1-3)[Fuc(a1-4)]GlcNAc(b1-2)Man(a1-3)]Man(b1-4)GlcNAc(b1-4)GlcNAc
Outline: as §1

[16] = target: Fuc(a1-2)Gal(b1-3)[Fuc(a1-4)]GlcNAc(b1-2)Man(a1-3)[Fuc(a1-2)Gal(b1-3)[Fuc(a1-4)]GlcNAc(b1-2)Man(a1-6)]Man(b1-4)GlcNAc(b1-4)[Fuc(a1-6)]GlcNAc(b1-4)[Fuc(a1-6)]GlcNAc
Outline: as §1

[17] = target: Fuc(a1-2)Gal(b1-3)[Fuc(a1-4)]GlcNAc(b1-3)[Fuc(a1-3)[Gal(b1-4)]GlcNAc(b1-6)]Gal(b1-4)Glc
Outline: as §1

[18] = target: Fuc(a1-2)Gal(b1-3)[Fuc(a1-4)]GlcNAc(b1-3)[Gal(b1-4)GlcNAc(b1-6)]Gal(b1-4)Glc
Outline: as §1

[19] = target: Fuc(a1-2)Gal(b1-4)Fuc(a1-3)]GlcNAc(b1-2)Man(a1-3)[Fuc(a1-2)Gal(b1-4)[Fuc(a1-3)]GlcNAc(b1-2)Man(a1-6)]Man(b1-4)GlcNAc(b1-4)GlcNAc
Outline: as §1

Fuc(a1-2)Gal(b1-4)Glc = target: Fuc(a1-2)Gal(b1-4)Glc
Outline: as §1

Fuc(a1-2)Gal(b1-4)Glc6S = target: Fuc(a1-2)Gal(b1-4)Glc6S
Outline: as §1

Fuc(a1-2)Gal(b1-4)GlcNAc = target: Fuc(a1-2)Gal(b1-4)GlcNAc
Outline: as §1

[20] = target: Fuc(a1-2)Gal(b1-4)GlcNAc(b1-2)Man
Outline: as §1

[21] = target: Fuc(a1-2)Gal(b1-4)GlcNAc(b1-2)Man(a1-3)[Fuc(a1-2)Gal(b1-4)GlcNAc(b1-2)Man(a1-6)]Man(b1-4)GlcNAc(b1-4)GlcNAc
Outline: as §1

[22] = target: Fuc(a1-2)Gal(b1-4)GlcNAc(b1-2)Man(a1-3)[Fuc(a1-2)Gal(b1-4)GlcNAc(b1-2)Man(a1-6)]Man(b1-4)GlcNAc(b1-4)[Fuc(a1-6)]GlcNAc
Outline: as §1

[23] = target: Fuc(a1-2)Gal(b1-4)GlcNAc(b1-2)[Fuc(a1-2)Gal(b1-4)GlcNAc(b1-4)]Man(a1-3)[Fuc(a1-2)Gal(b1-4)GlcNAc(b1-2)Man(a1-6)]Man(b1-4)GlcNAc(b1-4)GlcNAc
Outline: as §1

[24] = target: Fuc(a1-2)Gal(b1-4)GlcNAc(b1-3)Gal(b1-4)GlcNAc
Outline: as §1

[25] = target: Fuc(a1-2)Gal(b1-4)GlcNAc(b1-3)Gal(b1-4)GlcNAc(b1-2)Man(a1-3)[Fuc(a1-2)Gal(b1-4)GlcNAc(b1-3)Gal(b1-4)GlcNAc(b1-2)Man(a1-6)]Man(b1-4)GlcNAc(b1-4)GlcNAc
Outline: as §1

[26] = target: Fuc(a1-2)Gal(b1-4)GlcNAc(b1-3)Gal(b1-4)GlcNAc(b1-3)Gal(b1-4)GlcNAc
Outline: as §1

[27] = target: Fuc(a1-2)Gal(b1-4)GlcNAc(b1-3)GalNAc
Outline: as §1

[28] = target: Fuc(a1-2)Gal(b1-4)GlcNAc(b1-3)[Fuc(a1-2)Gal(b1-4)GlcNAc(b1-6)]GalNAc
Outline: as §1

[29] = target: Fuc(a1-2)Gal(b1-4)GlcNAc(b1-3)[Fuc(a1-3)[Gal(b1-4)]GlcNAc(b1-6)]Gal(b1-4)Glc
Outline: as §1

[30] = target: Fuc(a1-2)Gal(b1-4)GlcNAc(b1-6)GalNAc
Outline: as §1

[31] = target: Fuc(a1-2)Gal(b1-4)GlcNAc6S
Outline: as §1

[32] = target: Fuc(a1-2)Gal(b1-4)[Fuc(a1-3)]GlcNAc
Outline: as §1

[33] = target: Fuc(a1-2)Gal(b1-4)[Fuc(a1-3)]GlcNAc(b1-2)Man(a1-3)[Fuc(a1-2)Gal(b1-4)[Fuc(a1-3)]GlcNAc(b1-2)Man(a1-6)]Man(b1-4)GlcNAc(b1-4)[Fuc(a1-6)]GlcNAc
Outline: as §1

[34] = target: Fuc(a1-2)Gal(b1-4)[Fuc(a1-3)]GlcNAc(b1-2)[Fuc(a1-2)Gal(b1-4)[Fuc(a1-3)]GlcNAc(b1-4)]Man(a1-3)[Fuc(a1-2)Gal(b1-4)[Fuc(a1-3)]GlcNAc(b1-2)Man(a1-6)]Man(b1-4)GlcNAc(b1-4)GlcNAc
Outline: as §1

[35] = target: Fuc(a1-2)Gal(b1-4)[Fuc(a1-3)]GlcNAc(b1-3)Gal(b1-4)[Fuc(a1-3)]GlcNAc
Outline: as §1

[36] = target: Fuc(a1-2)Gal(b1-4)[Fuc(a1-3)]GlcNAc(b1-3)Gal(b1-4)[Fuc(a1-3)]GlcNAc(b1-3)Gal(b1-4)[Fuc(a1-3)]GlcNAc
Outline: as §1

[37] = target: Fuc(a1-2)Gal(b1-4)[Fuc(a1-3)]GlcNAc(b1-3)GalNAc
Outline: as §1

[38] = target: Fuc(a1-2)Gal(b1-4)[Fuc(a1-3)]GlcNAc(b1-3)[Neu5Ac(a2-6)Gal(b1-4)GlcNAc(b1-6)]Gal(b1-4)Glc
Outline: as §1

[39] = target: Fuc(a1-2)Gal3S(b1-4)GlcNAc
Outline: as §1

[40] = target: Fuc(a1-2)Gal6S(b1-3)GlcNAc
Outline: as §1

[41] = target: Fuc(a1-2)Gal6S(b1-3)GlcNAc6S
Outline: as §1

Fuc(a1-2)Gal6S(b1-4)Glc = target: Fuc(a1-2)Gal6S(b1-4)Glc
Outline: as §1

[42] = target: Fuc(a1-2)Gal6S(b1-4)Glc6S
Outline: as §1

Fuc(a1-2)GlcNAc = target: Fuc(a1-2)GlcNAc
Outline: as §1

Fuc(a1-2)[Gal(a1-3)]Gal = target: Fuc(a1-2)[Gal(a1-3)]Gal
Outline: as §1

[43] = target: Fuc(a1-2)[Gal(a1-3)]Gal(b1-3)GalNAc
Outline: as §1

[44] = target: Fuc(a1-2)[Gal(a1-3)]Gal(b1-3)GalNAc(b1-3)Gal(a1-4)Gal(b1-4)Glc
Outline: as §1

[45] = target: Fuc(a1-2)[Gal(a1-3)]Gal(b1-3)GlcNAc
Outline: as §1

[46] = target: Fuc(a1-2)[Gal(a1-3)]Gal(b1-3)GlcNAc(b1-2)Man(a1-3)[Fuc(a1-2)[Gal(a1-3)]Gal(b1-3)GlcNAc(b1-2)Man(a1-6)]Man(b1-4)GlcNAc(b1-4)GlcNAc
Outline: as §1

[47] = target: Fuc(a1-2)[Gal(a1-3)]Gal(b1-3)GlcNAc(b1-2)Man(a1-3)[Fuc(a1-2)[Gal(a1-3)]Gal(b1-3)GlcNAc(b1-2)Man(a1-6)]Man(b1-4)GlcNAc(b1-4)[Fuc(a1-6)]GlcNAc
Outline: as §1

[48] = target: Fuc(a1-2)[Gal(a1-3)]Gal(b1-3)GlcNAc(b1-3)GalNAc
Outline: as §1

[49] = target: Fuc(a1-2)[Gal(a1-3)]Gal(b1-3)GlcNAc(b1-6)GalNAc
Outline: as §1

[50] = target: Fuc(a1-2)[Gal(a1-3)]Gal(b1-4)Glc
Outline: as §1

[51] = target: Fuc(a1-2)[Gal(a1-3)]Gal(b1-4)GlcNAc
Outline: as §1

B1: SJA (Sophora japonica) (protein)
chain: FLGLFNSGGYSSSYQIVAVEFDTYINEWDPKTRHIGIDINSINSTKTVTWGWENGEVAIVLISYKAATETLTVSLTYPSSQTSYILSAAVDLKSILPEWVRIGF
Fuc(a1-2)Gal
  glycan array binding signal (z-score): -0.017
Fuc(a1-2)Gal(b1-3)GalNAc
  glycan array binding signal (z-score): -0.203
[1]
  glycan array binding signal (z-score): -0.36
[2]
  glycan array binding signal (z-score): -0.224
[3]
  glycan array binding signal (z-score): -0.081
[4]
  glycan array binding signal (z-score): -0.14
[5]
  glycan array binding signal (z-score): -0.092
Fuc(a1-2)Gal(b1-3)GlcNAc
  glycan array binding signal (z-score): -0.218
[6]
  glycan array binding signal (z-score): 0.322
[7]
  glycan array binding signal (z-score): -0.346
[8]
  glycan array binding signal (z-score): -0.125
[9]
  glycan array binding signal (z-score): -0.172
[10]
  glycan array binding signal (z-score): -0.184
[11]
  glycan array binding signal (z-score): -0.254
[12]
  glycan array binding signal (z-score): -0.155
[13]
  glycan array binding signal (z-score): -0.278
[14]
  glycan array binding signal (z-score): -0.008
[15]
  glycan array binding signal (z-score): 0.093
[16]
  glycan array binding signal (z-score): -0.175
[17]
  glycan array binding signal (z-score): -0.31
[18]
  glycan array binding signal (z-score): -0.052
[19]
  glycan array binding signal (z-score): 0.588
Fuc(a1-2)Gal(b1-4)Glc
  glycan array binding signal (z-score): -0.141
Fuc(a1-2)Gal(b1-4)Glc6S
  glycan array binding signal (z-score): -0.144
Fuc(a1-2)Gal(b1-4)GlcNAc
  glycan array binding signal (z-score): 0.088
[20]
  glycan array binding signal (z-score): -0.099
[21]
  glycan array binding signal (z-score): 0.01
[22]
  glycan array binding signal (z-score): -0.133
[23]
  glycan array binding signal (z-score): -0.012
[24]
  glycan array binding signal (z-score): -0.163
[25]
  glycan array binding signal (z-score): 0.111
[26]
  glycan array binding signal (z-score): -0.154
[27]
  glycan array binding signal (z-score): 0.094
[28]
  glycan array binding signal (z-score): 0.029
[29]
  glycan array binding signal (z-score): -0.156
[30]
  glycan array binding signal (z-score): -0.125
[31]
  glycan array binding signal (z-score): -0.09
[32]
  glycan array binding signal (z-score): -0.182
[33]
  glycan array binding signal (z-score): -0.206
[34]
  glycan array binding signal (z-score): -0.047
[35]
  glycan array binding signal (z-score): -0.149
[36]
  glycan array binding signal (z-score): -0.197
[37]
  glycan array binding signal (z-score): 0.142
[38]
  glycan array binding signal (z-score): -0.348
[39]
  glycan array binding signal (z-score): -0.087
[40]
  glycan array binding signal (z-score): -0.266
[41]
  glycan array binding signal (z-score): -0.325
Fuc(a1-2)Gal6S(b1-4)Glc
  glycan array binding signal (z-score): -0.328
[42]
  glycan array binding signal (z-score): -0.047
Fuc(a1-2)GlcNAc
  glycan array binding signal (z-score): -0.179
Fuc(a1-2)[Gal(a1-3)]Gal
  glycan array binding signal (z-score): 0.674
[43]
  glycan array binding signal (z-score): 0.908
[44]
  glycan array binding signal (z-score): 0.823
[45]
  glycan array binding signal (z-score): 0.795
[46]
  glycan array binding signal (z-score): 4.34
[47]
  glycan array binding signal (z-score): 0.049
[48]
  glycan array binding signal (z-score): 0.01
[49]
  glycan array binding signal (z-score): -0.284
[50]
  glycan array binding signal (z-score): 1.58
[51]
  glycan array binding signal (z-score): 2.19
